The shares of active, inactive and inconclusive entries below differ from those in the screen. A potency beside an inconclusive call is a rough fit, not a confirmed value. Activity calls are given as the source filed them. The call rests on the fitted dose curve; in most records, active means well fitted curve in the direction sought with a large enough effect; inconclusive means small, poorly fitted or top-dose-only effect, or another doubt; inactive means no such curve, though single readings can be large; an effect the other way counts as inactive or inconclusive.
What was measured:
[1] = Primary qHTS for inhibitors of nuclear receptor binding SET domain protein 2 (NSD2) in an isogenic RCH-ACV NSD2 p.E1099K mutant (9B) (AID 1645876)
[2] = Primary qHTS for inhibitors of nuclear receptor binding SET domain protein 2 (NSD2) in an RCH-ACV wild type WT cells (2C) (AID 1645877)
Further: nearly all actives have a fitted effect of over 70% in size.
Potency means the concentration at half of the fitted maximal effect; tags describe the fitted curve by direction and shape.

Row | Compound | Potency [1] | Potency [2]
1 | C[C@H](CN1CCOCC1)C(C(=O)N1CCCC1)(c1ccccc1)c1ccccc1 | inactive | inactive
2 | CCOC(=O)c1c(C(C#N)=CN)c2ccc(Cl)c(Cl)c2n1C | inconclusive: 29.1 µM [inhibitor, partial curve, poor fit] | inconclusive: 23.1 µM [inhibitor, single point]
3 | CC(=O)NCCCOc1ccc(C(=O)N2CCC(N3C(=O)CCc4ccccc43)CC2)cc1 | inconclusive: 18.3 µM [inhibitor, single point] | inconclusive: 23 µM [inhibitor, single point]
4 | CC1(C)CC/C(=C/c2ccc(Cl)cc2)C1(O)Cn1cncn1 (configuration not stated) | inconclusive: 21.5 µM [inhibitor, partial curve] | inconclusive: 21.5 µM [inhibitor, partial curve]
5 | C=CCC1([C@H](C)CCC)C(=O)NC(=O)NC1=O | inconclusive: 67.9 µM [inhibitor, single point] | inconclusive: 67.9 µM [inhibitor, single point]
6 | O=S(=O)(c1ccccc1F)N1CCOc2c(N3CCNCC3)cccc21 | inconclusive: 18.3 µM [inhibitor, single point] | inconclusive: 16.3 µM [inhibitor, single point]

Reference: PubChem BioAssay (NCATS)
